The subject of this experiment is V-C8 + BRCA2 (BRCA2-proficient hamster cells). Kind of experiment: normalised cell viability (fraction of plate median); higher = more viable cells (less toxic). To be noted: 5 µM. Put shortly: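 Library drugs, held as 10 mM stocks in DMSO, were diluted to 5 μM in 100 μl medium and added to 96-well plates of V-C8 hamster cells, either lacking BRCA2 or with BRCA2 restored, 24 h after seeding. Plates ran for 3 days (screen 1) or 6 days (screen 2), alongside solvent-only wells. Viability came from a resazurin readout, median-plate normalised, as the mean of triplicate wells.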

Structures are written as SMILES. Counter-ions that a name gives are not always drawn. ± gives the standard deviation of the averaged measurements. Whole data set: some 1,300 compounds, median “normalised cell viability” near 1, cut for the lowest 2% near 0.15. The list shows a part of the results.

For `O=c1n(CCCN2CCN(c3cccc(Cl)c3)CC2)nc2ccccn12` [Trazodone hydrochloride], the normalised cell viability (treatment time: 3 days) worked out at 1.04 ± 0.047 and the normalised cell viability (treatment time: 6 days) amounted to 1.1 ± 0.063.

For the molecule `COc1ccc2cc([C@H](C)C(=O)O)ccc2c1` [Naproxen], the normalised cell viability reads like this: (treatment time: 3 days) 1.13 ± 0.065; (treatment time: 6 days) 1.09 ± 0.023.

Take `Nc1cc(N2CCCCC2)nc(N)[n+]1[O-]` [Minoxidil]: the normalised cell viability (treatment time: 3 days) came to 0.994 ± 0.071 and the normalised cell viability (treatment time: 6 days) stood at 0.993 ± 0.062.

On to `O=C(O)c1ccccc1OP(=O)(O)O` [Fosfosal], for which the normalised cell viability is, setting by setting: (treatment time: 3 days) 0.966 ± 0.055; (treatment time: 6 days) 1.06 ± 0.1.

For `Cc1ncc([N+](=O)[O-])n1CC(C)O` (stereo unspecified) [Secnidazole], the normalised cell viability by setting is: (treatment time: 3 days) 1.08 ± 0.017; (treatment time: 6 days) 1.01 ± 0.017.

As for `C/C=C(/C(=C/C)c1ccc(O)cc1)c1ccc(O)cc1` [Dienestrol], the normalised cell viability by setting is: (treatment time: 3 days) 0.951 ± 0.019; (treatment time: 6 days) 0.8703 ± 0.0083.

Consider `CC(=O)O[C@H]1C(=O)[C@@]2(C)[C@H]([C@H](OC(=O)c3ccccc3)[C@]3(O)C[C@H](OC(=O)[C@H](O)[C@@H](NC(=O)c4ccccc4)c4ccccc4)C(C)=C1C3(C)C)[C@]1(OC(C)=O)CO[C@@H]1C[C@@H]2O` [Paclitaxel], for which the normalised cell viability (treatment time: 3 days) stood at 0.215 ± 0.013 and the normalised cell viability (treatment time: 6 days) is 0.241 ± 0.033.

Take `COc1cccc2c1C(=O)c1c(O)c3c(c(O)c1C2=O)C[C@@](O)(C(=O)CO)C[C@@H]3O[C@H]1C[C@H](N)[C@@H](O)[C@H](C)O1` [Epirubicin hydrochloride]: the normalised cell viability (treatment time: 3 days) is 0.136 ± 0.0036 and the normalised cell viability (treatment time: 6 days) amounted to 0.153 ± 0.024.

`CCCN(CCC)CCc1cccc2c1CC(=O)N2` [Ropinirole HCl]: the normalised cell viability by setting is: (treatment time: 3 days) 1.04 ± 0.042; (treatment time: 6 days) 1.05 ± 0.028.

As for `N/C(=N\C(=O)c1nc(Cl)c(N)nc1N)NCc1ccccc1` [Benzamil hydrochloride], the normalised cell viability by setting is: (treatment time: 3 days) 0.904 ± 0.035; (treatment time: 6 days) 0.925 ± 0.054.

On to `O=C(CCNNC(=O)c1ccncc1)NCc1ccccc1` [Nialamide], for which the normalised cell viability (treatment time: 3 days) came to 1.02 ± 0.082 and the normalised cell viability (treatment time: 6 days) amounted to 0.91 ± 0.23.

Take `Cc1nc2ccccn2c(=O)c1CCN1CCC(C(=O)c2ccc(F)cc2)CC1` [Pirenperone]: the normalised cell viability amounted to 1.02 ± 0.024 (treatment time: 3 days) and 1.1 ± 0.046 (treatment time: 6 days).

For `CSc1nc2cc(Cl)c(Oc3cccc(Cl)c3Cl)cc2[nH]1` [Triclabendazole], the normalised cell viability reads like this: (treatment time: 3 days) 0.232 ± 0.011; (treatment time: 6 days) 0.213 ± 0.016.

Turning to `NC(=O)c1cnccn1` [Pyrazinamide], the normalised cell viability reads like this: (treatment time: 3 days) 1.14 ± 0.039; (treatment time: 6 days) 1.02 ± 0.043.

Take `CC[C@@H]1C(=O)OC[C@@H]1Cc1cncn1C` [Pilocarpine nitrate]: the normalised cell viability runs as follows: (treatment time: 3 days) 1.04 ± 0.078; (treatment time: 6 days) 1.05 ± 0.045.

Consider `NS(=O)(=O)c1cc2c(cc1C(F)(F)F)NCNS2(=O)=O` [Hydroflumethiazide], for which the normalised cell viability (treatment time: 3 days) stood at 0.966 ± 0.044 and the normalised cell viability (treatment time: 6 days) was determined as 1 ± 0.015.

As to `CC(C)NC[C@@H](O)COc1ccc(CC(N)=O)cc1` [(R)-(+)-Atenolol], the normalised cell viability was determined as 0.861 ± 0.044 (treatment time: 3 days) and 0.9064 ± 0.0033 (treatment time: 6 days).

As for `Cc1c(NC(=O)c2cccnc2)c(=O)n(-c2ccccc2)n1C` [Nifenazone], the normalised cell viability amounted to 1.01 ± 0.042 (treatment time: 3 days) and 0.987 ± 0.044 (treatment time: 6 days).

Turning to `CS(=O)(=O)OCCCCOS(C)(=O)=O` [Busulfan], the normalised cell viability (treatment time: 3 days) is 0.881 ± 0.056 and the normalised cell viability (treatment time: 6 days) was 1.01 ± 0.013.

Regarding `COc1cccc2c1C(=O)c1c(O)c3c(c(O)c1C2=O)C[C@@](O)(C(C)=O)C[C@@H]3O[C@H]1C[C@H](N)[C@H](O)[C@H](C)O1` [Daunorubicin hydrochloride], the normalised cell viability by setting is: (treatment time: 3 days) 0.136 ± 0.0082; (treatment time: 6 days) 0.128 ± 0.015.

Consider `C=CC1=C(C(=O)O)N2C(=O)[C@@H](NC(=O)/C(=N\O)c3csc(N)n3)[C@H]2SC1` [Cefdinir], for which the normalised cell viability is, setting by setting: (treatment time: 3 days) 1.021 ± 0.0088; (treatment time: 6 days) 1.06 ± 0.11.

For `Cc1cn([C@H]2C=C[C@@H](CO)O2)c(=O)[nH]c1=O` [Stavudine], the normalised cell viability was 1.08 ± 0.074 (treatment time: 3 days) and 0.983 ± 0.027 (treatment time: 6 days).

Take `CC(=O)NS(=O)(=O)c1ccc(N)cc1` [Sulfacetamide sodic hydrate]: the normalised cell viability was 0.989 ± 0.033 (treatment time: 3 days) and 0.968 ± 0.065 (treatment time: 6 days).

Take `CCN(CC)CC(=O)Nc1c(C)cccc1C` [Lidocaïne hydrochloride]: the normalised cell viability is, setting by setting: (treatment time: 3 days) 0.982 ± 0.017; (treatment time: 6 days) 0.968 ± 0.096.

On to `CC(=O)OCC(=O)[C@@]12OC(C)(C)O[C@@H]1C[C@H]1[C@@H]3C[C@H](F)C4=CC(=O)C=C[C@]4(C)[C@@]3(F)[C@@H](O)C[C@@]12C` [Fluocinonide], for which the normalised cell viability was 1.04 ± 0.017 (treatment time: 3 days) and 1.06 ± 0.04 (treatment time: 6 days).

Take `c1ccc2c(CC3=NCCN3)cccc2c1` [Naphazoline hydrochloride]: the normalised cell viability is 1.12 ± 0.025 (treatment time: 3 days) and 1.1 ± 0.049 (treatment time: 6 days).

Turning to `CO[C@@H]1[C@@H](O[C@@H]2O[C@H](C)[C@@H](O[C@H]3C[C@@](C)(O)[C@@H](OC(=O)CC(C)C)[C@H](C)O3)[C@H](N(C)C)[C@H]2O)[C@@H](CC=O)C[C@@H](C)[C@@H](O)/C=C/C=C/C[C@@H](C)OC(=O)C[C@H]1OC(C)=O` [Josamycin], the normalised cell viability is, setting by setting: (treatment time: 3 days) 0.841 ± 0.045; (treatment time: 6 days) 0.863 ± 0.04.

In the case of `CC(=O)CC(c1ccccc1)c1c(O)c2ccccc2oc1=O` (stereo unspecified) [Warfarin], the normalised cell viability is, setting by setting: (treatment time: 3 days) 0.943 ± 0.044; (treatment time: 6 days) 1.02 ± 0.033.

With `OCCN(CCO)c1nc(N2CCCCC2)c2nc(N(CCO)CCO)nc(N3CCCCC3)c2n1` [Dipyridamole], the normalised cell viability (treatment time: 3 days) was 1.01 ± 0.028 and the normalised cell viability (treatment time: 6 days) turned out to be 1.05 ± 0.071.

For `O=C(O)c1ccccc1C(=O)Nc1ccc(S(=O)(=O)Nc2nccs2)cc1` [Phthalylsulfathiazole], the normalised cell viability is, setting by setting: (treatment time: 3 days) 1.03 ± 0.053; (treatment time: 6 days) 1.14 ± 0.026.

On to `CN(c1nccc(=O)[nH]1)C1CCN(c2nc3ccccc3n2Cc2ccc(F)cc2)CC1` [Mizolastine], for which the normalised cell viability (treatment time: 3 days) came to 1.05 ± 0.06 and the normalised cell viability (treatment time: 6 days) is 1.1 ± 0.07.

`CN1CCN(C(c2ccccc2)c2ccccc2)CC1` [Cyclizine hydrochloride]: the normalised cell viability turned out to be 1.06 ± 0.043 (treatment time: 3 days) and 1.07 ± 0.048 (treatment time: 6 days).

Take `CN1CCC(=C2c3ccccc3Sc3ccccc32)CC1` [Pimethixene maleate]: the normalised cell viability runs as follows: (treatment time: 3 days) 0.969 ± 0.027; (treatment time: 6 days) 1.01 ± 0.032.

The record behind these values is the supplement of paper PMC6609913.
